Screen size: about 320,000 compounds; about 9,100 (2.8%) were called active. Inconclusive results, whose numbers are uncertain, are shown with a selection of clear calls. The call rests on the fitted dose curve; in most records, active means well fitted activation curve with a large enough effect; inconclusive means small, poorly fitted or top-dose-only effect; inactive means no such curve, though single readings can be large or run the other way. Potencies of inconclusive entries are left out as doubtful fits.
Assay: qHTS Assay for Rab9 Promoter Activators; further: nearly all actives have a fitted effect of over 60% in size; on activation, negative = inhibition: % of control where 0% means no effect
Conditions: Huh7 Rab9 promoter-luciferase reporter, luminescence, 24 h; series mostly up to 9.22 µM
Method in brief: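 Rab9 promoter-driven luciferase in stably transfected Huh7 cells; 1500 cells/well rested 2 h, exposed to compound in DMSO for 24 h at 37 °C, 5% CO2. Luminescence read 10 min after adding luciferase reagent at ambient temperature.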
Potency means the concentration at half of the fitted maximal effect; tags describe the fitted curve by direction and shape.

SMILES | Potency | activation, negative = inhibition
Cc1nnc2c3ccccc3c(-c3ccc(O)cc3)nn12 | inactive | –
CCCNC(=O)c1cc(Cl)c(NC(=O)C2=CSCCO2)cc1OC | inconclusive [activator, single point] | –
Fc1ccc2nc(N3CCOCC3)sc2c1 | inconclusive [activator, partial curve] | –
c1ccc(Sc2ncnc3c2oc2ccccc23)cc1 | inconclusive [activator, single point] | –
O=C(OCCc1cc2ccccc2c(=O)o1)c1ccccc1C(F)(F)F | inactive | –
Cc1ccc(C(=O)C(C)OC(=O)CN2C(=O)NC3(CCCC3)C2=O)cc1 (stereo not drawn) | inactive | –
CCCn1cccc(C(=O)Nc2ccc(OC)cc2)c1=O | inconclusive [activator, partial curve] | –
CSCC[C@H](NC(=O)[C@@H]1Cc2ccccc2CN1)C(=O)Nc1ccc2c(c1)OCCO2 | inconclusive [activator, single point] | –
O=C(NCCc1ccccc1)Nc1ccc2c(c1)OCO2 | active: 1.41 µM | –
Cc1cc(C(=O)N/N=C/c2cc(Cl)cc([N+](=O)[O-])c2O)n[nH]1 | inactive | –
O=C(/C=C/c1c(F)cccc1Cl)Nc1ccncc1 | inconclusive [activator, partial curve] | –
COc1ccc2nc(NC(=O)c3ccc(NC(=O)C4CCCO4)cc3)sc2c1 (stereo not drawn) | inactive | –
CN(C(=O)c1ccco1)c1nnc(C23CC4CC(CC(C4)C2)C3)s1 | inconclusive [activator, partial curve] | –
Cc1ccc(-c2cn3c(=O)cc(C)[nH]c3n2)cc1 | active: 0.794 µM | –
CNC(=O)c1cc2c(cn1)[nH]c1ccccc12 | inconclusive [activator, partial curve] | –
Cc1ccc(-c2cc(C(=O)Nc3cc(C)ccc3O)no2)cc1 | inconclusive [activator, partial curve] | –
CCC(C)C(=O)Nc1nc2ccc(OC)cc2s1 (stereo not drawn) | active: 2.51 µM | –
C=CCc1cccc(/C=C/c2cc(=O)c3ccccc3[nH]2)c1O | inconclusive [activator, single point] | –
N#C/C(=C\c1cccc(NC(=O)c2ccccc2Cl)c1)C(=O)NCCc1ccccc1 | inconclusive [activator, single point] | –
O=C(Cn1nnc2ccccc2c1=O)NC1CCCCC1 | inconclusive [activator, single point] | –
COc1ccc(NC(=O)/C=C/c2ccc(Cl)cc2)cc1 | active: 2.51 µM | –
Cc1ccc(C(=O)OCC(=O)N2CCc3ccccc32)cc1 | inconclusive [activator, single point] | –
CCOC(=O)c1c(-c2ccccc2)oc2ccc(OCC(O)CNCCN(C)C)cc12 (stereo not drawn) | – | inactive: 1.87% [at 1.84 µM]
O=[N+]([O-])c1ccccc1CNC1CCCc2ccccc21 (stereo not drawn) | inactive | –
COc1ccccc1C(=O)NNC(=O)c1cccc(F)c1 | inconclusive [activator, single point] | –
Clc1ccc(-c2nnc(SCc3ccon3)o2)c(Cl)c1 | active: 0.501 µM | –

SMILES | Potency | activation, negative = inhibition
O=[N+]([O-])c1ccc(NCc2ccc(Cl)cc2)nc1 | inconclusive [activator, single point] | –
CS(=O)(=O)C1=NSC2=NC(=O)/C(=C\c3ccc(OC(=O)c4ccco4)cc3)C(=N)N21 | inactive | –
O=C(OCC(=O)N1CCCc2ccccc21)c1ccc(Cl)nc1 | inactive | –
CCCc1cnc(N2CCN(C(=S)NC)CC2)nc1 | active: 4.47 µM | –
N#Cc1c2n(c3c(=S)nc[nH]c13)CCCCC2 | inconclusive [activator, single point] | –
COc1ccccc1/C=C/c1ccc2cccc(O)c2n1 | inconclusive [activator, partial curve] | –
CCCNC(=O)N1CCN(S(C)(=O)=O)CC1 | inactive | –
COc1ccc(/C=N/NC2=NCCCCC2)cc1 | inconclusive [activator, single point] | –
O=c1[nH]c(C2CCCN(S(=O)(=O)c3ccccc3)C2)nc2c1nnn2Cc1ccccc1Br (stereo not drawn) | inactive | –
CN1/C(=C/C(=O)c2ccc(Cl)cc2)Sc2cc3c(cc21)OCO3 | inconclusive [activator, single point] | –
Cc1nn(CCC(=O)Nc2cccc(C#N)c2)c(C)c1S(=O)(=O)N1CCCCC1 | inactive | –
COc1ccc(-c2nc3ccccc3c(=O)[nH]2)cc1 | active: 0.708 µM | –
Cc1ccc(C(=O)COC(=O)c2cc(=O)[nH]c3ccccc23)cc1C | inconclusive [activator, partial curve] | –
O=C(/C=C/c1cc2ccccc2o1)c1ccccc1O | inconclusive [activator, single point] | –
Cc1occc1C(=O)NNC(=O)c1ccccc1F | inconclusive [activator, partial curve] | –
c1cncc(-c2noc(-c3cccc4ccccc34)n2)c1 | inconclusive [activator, single point] | –
COC(=O)c1ccc(NC(=S)Nc2ccccn2)cc1 | active: 1.78 µM | –
O=C1CCN(Cc2ccc(O)cc2)CCN1CCO | inactive | –
O=C(Cc1ccsc1)Nc1ccc2c(c1)OCO2 | inconclusive [activator, single point] | –
COc1ccc(-c2nc3c(-c4ccccc4)cnn3cc2C)cc1F | inactive | –
CCc1cc(C(c2ccc(OC)c(OC)c2)N2CCOCC2)c(NC(=O)c2ccccc2)s1 (stereo not drawn) | inactive | –
CCOC(=O)c1sc(NC(=O)c2cccc(S(=O)(=O)N3CCc4ccccc43)c2)c(C#N)c1C | inactive | –
N#Cc1ccc(C(=O)NC2=NCCS2)cc1 | inconclusive [activator, partial curve] | –
Cc1ccc(NC(=O)NCc2nc3ccccc3n2C)cc1 | inactive | –
O=C(CSc1nnnn1-c1ccccc1)NC(=O)Nc1ccc2c(c1)OCCO2 | inconclusive [activator, partial curve] | –
C=CCNc1nc(-c2sc(NC(C)=O)nc2C)cs1 | inactive | –

SMILES | Potency | activation, negative = inhibition
O=C(Nc1nc(-c2cc(F)ccc2F)cs1)C1=COCCO1 | inconclusive [activator, single point] | –
O=C(Nc1ccc(F)cc1Cl)c1ccc2c(=O)n3c(nc2c1)CCCCC3 | inconclusive [activator, partial curve] | –
CC(C)(C)c1ccc(/C=N/NC(=S)NC2CCCCC2)cc1 | inactive | –
CCOC(=O)N1CCN(C(=O)c2cc3c(=O)n4cccc(C)c4nc3s2)CC1 | inconclusive [activator, single point] | –
CC(=O)c1ccc(OCc2cc(C(=O)N3CCC(Oc4ccccc4C)CC3)no2)cc1 | inconclusive [activator, partial curve] | –
Cn1cccc1CNC(=O)Nc1ccccc1 | inconclusive [activator, partial curve] | –
COc1ccc(C2NC3=C(CCCC3)C(C#N)(C#N)C2(C#N)C#N)cc1 (stereo not drawn) | inactive | –
CCOC(=O)c1sc2nc3n(c(=O)c2c1C)CCC(C)CC3 (stereo not drawn) | inconclusive [activator, single point] | –
COc1ccc(C2CC2/C(=N/OC(=O)c2cccs2)c2ccccc2)cc1 (stereo not drawn) | inconclusive [activator, partial curve] | –
Cc1cccc(-n2ncc3c(N4CCOCC4)ncnc32)c1 | active: 0.355 µM | –
CN(C)/C=C/C(=O)c1ccc(Oc2ncccn2)cc1 | inactive | –
COc1ccc(NC(=O)Nc2ccccc2F)c([N+](=O)[O-])c1 | inconclusive [activator, single point] | –
CN(C(=O)c1ccc(NC(=O)c2ccco2)cc1)c1ccccc1 | inconclusive [activator, partial curve] | –
CCCC(=O)Nc1nc(-c2ccc(Cl)s2)cs1 | inconclusive [activator, partial curve] | –
CCN(CC)S(=O)(=O)c1ccc2nc(NC(=O)c3cccs3)sc2c1 | inconclusive [activator, partial curve] | –
O=C(O)C1(c2ccccc2)CCN(S(=O)(=O)c2cccs2)CC1 | inconclusive [activator, single point] | –
[O-][n+]1c2c(nc3c1-c1ccccc1C3O)CCCC2 (stereo not drawn) | inconclusive [activator, partial curve] | –
N/C(=N\OC(=O)c1ccc(Cl)cc1[N+](=O)[O-])c1ccccn1 | inconclusive [activator, single point] | –
Cc1cc(C)nc(SCc2cc(=O)c(OC(=O)c3cc([N+](=O)[O-])ccc3Cl)co2)n1 | inactive | –
CCCn1nnc(NC(=O)c2ccc([N+](=O)[O-])cc2Cl)n1 | inconclusive [activator, single point] | –
O=C(COCc1cc(-c2ccc3c(c2)OCO3)on1)N1CCCCC1 | inconclusive [activator, partial curve] | –
Clc1cc(Cl)c(OCc2nc(-c3ccccn3)no2)cc1Cl | active: 0.708 µM | –
COc1cccc2cc(-c3nnc(-c4ccccc4)o3)c(=O)oc12 | active: 0.501 µM | –
CN1CCN(c2nc(-c3ccc(Cl)s3)cs2)CC1 | inconclusive [activator, partial curve] | –
Cc1cc(C)n(-c2nnc(NC(C)(C)C)nn2)n1 | active: 3.16 µM | –
Cc1cccc(C)c1N=Cc1c(O)n(-c2nccs2)c(=O)c2ccccc12 | inactive | –

From PubChem BioAssay AID485297 (National Center for Advancing Translational Sciences (NCATS), 2010)
